Experimental data: patent US20090087894A1, “Method for improving enzymatic activity of glycosyltransferases” (Japan Tobacco Inc., priority 2004, published 2009)

Experiments:
[1] = target: T1, β-galactoside-α2,6-sialyltransferase derived from P. damselae strain JT0160 (Photobacterium damselae, UniProt O66375)
T1 sequence (O66375 16-675): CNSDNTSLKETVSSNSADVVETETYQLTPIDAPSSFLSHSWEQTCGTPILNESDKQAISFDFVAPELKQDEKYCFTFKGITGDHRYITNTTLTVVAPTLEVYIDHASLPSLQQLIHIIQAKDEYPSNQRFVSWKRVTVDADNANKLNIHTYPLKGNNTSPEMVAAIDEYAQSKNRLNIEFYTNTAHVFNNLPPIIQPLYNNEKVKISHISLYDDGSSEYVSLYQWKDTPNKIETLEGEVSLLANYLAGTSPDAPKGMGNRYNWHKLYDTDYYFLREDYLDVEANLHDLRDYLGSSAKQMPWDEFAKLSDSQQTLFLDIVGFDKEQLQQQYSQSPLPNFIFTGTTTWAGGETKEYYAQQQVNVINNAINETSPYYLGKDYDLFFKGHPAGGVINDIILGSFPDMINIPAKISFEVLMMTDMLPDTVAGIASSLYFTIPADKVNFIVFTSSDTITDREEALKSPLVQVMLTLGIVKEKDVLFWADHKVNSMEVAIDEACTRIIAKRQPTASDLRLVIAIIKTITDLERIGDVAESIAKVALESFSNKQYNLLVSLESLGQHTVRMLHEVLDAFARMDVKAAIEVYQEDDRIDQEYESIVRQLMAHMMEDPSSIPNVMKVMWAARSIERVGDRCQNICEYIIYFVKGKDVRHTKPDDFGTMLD
Description: β-Galactoside-α2,6-sialyltransferase was purified from P. damselae strain JT0160, a marine microorganism, according to the procedure previously reported (Japanese Patent No. 3062409). The purity of the purified enzyme was confirmed by SDS-PAGE, whereby the final purified enzyme was confirmed to be an electrophoretically single protein. This purified enzyme was used in the following experiment.
The enzymatic reaction was accomplished in 20 μl reaction solution containing CMP-^14C-NeuAc as a glycosyl donor substrate (50.066 nmol, 25000 cpm), lactose as a glycosyl acceptor substrate (1 mmol), sialyltransferase (0.5 to 1.5 mU) and NaCl at a concentration varying from 0 to 2.5 M (30° C., 1 minute). After completion of the enzyme reaction, the radioactivity of NeuAc which was transferred to lactose under the respective conditions was measured to calculate the enzymatic activity, thereby studying the effect of NaCl on the enzymatic activity in each test range.
More specifically, after completion of the reaction, each reaction solution was supplemented with 1.98 ml of 5 mM phosphate buffer (pH 6.8) and applied to a AG1−×2Resin (PO4^3− form, 0.2×2 cm) column. This column was prepared as follows: AG1−×2Resin (OH^− form) (BIO-RAD) was suspended in 1 M phosphate buffer (pH 6.8), and after 30 minutes, the resin was washed with distilled water and then suspended in distilled water. The eluate (0 to 2 ml) from this column was measured for its radioactivity. The eluate from this column contains unreacted lactose and ^14C-NeuAc (N-acetylneuraminic acid)-bound sialyllactose which was generated by the reaction, but unreacted CMP-^14C-NeuAc is still retained on the column. Thus, the radioactivity of ^14C from sialyllactose generated as a result of the enzymatic reaction arises exclusively from the reaction product, so that the radioactivity of this fraction can be used to calculate the enzymatic activity.
The enzyme reaction was accomplished in 20 μl reaction solution containing CMP-^14C-NeuAc as a glycosyl donor substrate (50.066 nmol, 25000 cpm), lactose as a glycosyl acceptor substrate (1 mmol), sialyltransferase (0.5 to 1.5 mU) and KCl at a concentration varying from 0 to 1 M (30° C., 1 minute). After completion of the enzyme reaction, the radioactivity of NeuAc which was transferred to lactose under the respective conditions was measured to calculate the enzyme activity, thereby studying the effect of KCl on the enzyme activity in each test range. More specifically, after completion of the reaction, each reaction solution was supplemented with 1.98 ml of 5 mM phosphate buffer (pH 6.8) and applied to a AG1−×2Resin (PO4^3− form, 0.2×2 cm) column. This column was prepared as follows: AG1−×2Resin (OH^− form) (BIO-RAD) was suspended in 1 M phosphate buffer (pH 6.8), and after 30 minutes, the resin was washed with distilled water and then suspended in distilled water. The eluate (0 to 2 ml) from this column was measured for its radioactivity.
The enzyme reaction was accomplished in 20 μl reaction solution containing CMP-^14C-NeuAc as a glycosyl donor substrate (50.066 nmol, 25000 cpm), lactose as a glycosyl acceptor substrate (1 mmol), sialyltransferase (0.5 to 1.5 mU) and any one of MgCl2, MgSO4, CoCl2, CaCl2, MnCl2 or FeSO4 at a final concentration of 0 mM, 10 mM or 20 mM. (30° C., 1 minute). After completion of the enzyme reaction, the radioactivity of NeuAc which was transferred to lactose under the respective conditions was measured to calculate the enzyme activity, thereby studying the effect of various salts on the enzyme activity in each test range. More specifically, after completion of the reaction, each reaction solution was supplemented with 1.98 ml of 5 mM phosphate buffer (pH 6.8) and applied to a AG1−×2Resin (PO4^3− form, 0.2×2 cm) column. […]

[2] = target: T2, Rat liver-derived β-galactoside-α2,6-sialyltransferase (Rattus norvegicus, UniProt P13721); assay: Effect of NaCl on enzyme activity of rat liver-derived sialyltransferase, 14C-NeuAc transfer to asialofetuin; format: biochemical; details: NaCl 0 to 1.4 M; 37° C., 1 hour; relative to NaCl-free reaction solution = 1; FIG. 3
T2 construct: purchased Wako Pure Chemical Industries, Ltd., Japan; host or cells: rat liver-derived
T2 sequence (P13721 1-403): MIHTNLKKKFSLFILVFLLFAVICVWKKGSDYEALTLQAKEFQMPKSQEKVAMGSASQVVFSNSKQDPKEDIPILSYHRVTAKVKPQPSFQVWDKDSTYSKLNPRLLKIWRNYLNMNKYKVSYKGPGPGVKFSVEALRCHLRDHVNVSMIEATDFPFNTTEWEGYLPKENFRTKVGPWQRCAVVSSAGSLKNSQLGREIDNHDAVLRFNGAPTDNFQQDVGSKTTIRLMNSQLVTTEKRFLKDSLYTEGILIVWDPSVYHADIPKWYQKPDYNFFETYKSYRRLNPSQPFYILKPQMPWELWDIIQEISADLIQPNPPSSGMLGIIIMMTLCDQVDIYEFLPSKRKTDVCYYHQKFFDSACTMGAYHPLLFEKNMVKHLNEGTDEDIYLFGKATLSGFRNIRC
Description: The enzyme reaction was accomplished in the presence of CMP-^14C-NeuAc as a glycosyl donor substrate (50.066 nmol, 25000 cpm), asialofetuin as a glycosyl acceptor substrate (10 mg), sialyltransferase (1 to 5 mU) and NaCl at a concentration varying from 0 to 1.4 M (37° C., 1 hour). After completion of the enzymatic reaction, each reaction solution was applied to a Sephadex G-50 super fine (Amersham) column (0.8×20 cm) and eluted using a 0.1 M NaCl solution as a mobile phase to collect a high-molecular fraction containing a reaction product eluted at 2 to 4 ml (i.e., an enzymatic reaction product in which ^14C-labeled NeuAc was transferred to asialofetuin). It should be noted that a control experiment was performed for each reaction to confirm that unreacted CMP-^14C-NeuAc was not eluted in this fraction. The radioactivity of NeuAc transferred to asialofetuin was measured from the fraction to calculate the enzyme activity.

[3] = salt added at 10 mM, absence of salt = 1
[4] = salt added at 20 mM, absence of salt = 1

| SMILES | relative activity [1, 3] | relative activity [1, 4] | also measured |
| --- | --- | --- | --- |
| O=S(=O)([O-])[O-].[Mg+2] [MgSO4] | 0.87 | 0.89 | – |
| [Cl-].[Cl-].[Co+2] [CoCl2] | – | – | relative activity [1]: 0.69 and 0.41 |
| [Ca+2].[Cl-].[Cl-] [CaCl2] | 0.86 | 0.82 | – |
| [Cl-].[K+] [KCl] | – | – | improvement of sialyltransferase activity by KCl ([1]; KCl 0 to 1 M, 30° C., 1 minute, FIG. 2): not observed to improve the activity |
| [Cl-].[Cl-].[Mg+2] [MgCl2] | 0.97 | 0.84 | – |
| [Cl-].[Na+] [NaCl] | – | – | increase in enzyme activity on addition of NaCl [2]: no increase |
| O=S(=O)([O-])[O-].[Fe+2] [FeSO4] | 0.85 | 0.93 | – |
| [Cl][Mn][Cl] [MnCl2] | 0.78 | 0.92 | – |

Several values for one entry are separate records, joined by “and”; a condition that tells them apart may be missing. Equal entries are not always repeated. Where two headings read alike, the source gives them in different places.
